Experimental findings from the supplement of paper PMC9588766 are described below.

Where a name gives a salt, the structure may show the parent alone. Whole data set: some 1,900 compounds, median “cell viability of compound + 1 nM pemigatinib relative to pemigatinib-only (DMSO) wells” near 0.95, cut for the lowest 2% near 0.22. The list shows a part of the results.

The subject of the experiment is PDC-DUC18828. Put plainly: cell viability of compound + 1 nM pemigatinib relative to pemigatinib-only (DMSO) wells (fraction); PDC-DUC18828 is a patient-derived cholangiocarcinoma cell line; higher = less growth inhibition. The note with it: first compound 1 µM; pemigatinib concentration 1 nM; 72 h. On the procedure: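 Selleck Bioactive library screen in the patient-derived FGFR2 fusion-positive ICC cell line PDC-DUC18828 (500 cells/well). Each compound was tested at 1 uM with 1 nM pemigatinib, in triplicate, for 72 h. Viability was read by CellTiter-Glo and normalised to plate DMSO controls. Value is the paper's averaged normalised viability.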
Regarding `CN1CCc2nc(C(=O)N[C@@H]3C[C@@H](C(=O)N(C)C)CC[C@@H]3NC(=O)C(=O)Nc3ccc(Cl)cn3)sc2C1` [Edoxaban] + CCN1C(=O)N(c2c(F)c(OC)cc(OC)c2F)Cc2cnc3[nH]c(CN4CCOCC4)cc3c21 [pemigatinib], the cell viability turned out to be 1.
The result for `OCCn1cc(-c2ccc3c(c2)CC/C3=N\O)c(-c2ccncc2)n1` + CCN1C(=O)N(c2c(F)c(OC)cc(OC)c2F)Cc2cnc3[nH]c(CN4CCOCC4)cc3c21 [pemigatinib] reads 1.08.
As for `CC[C@H]1OC(=O)[C@H](C)[C@@H](O[C@H]2C[C@@](C)(OC)[C@@H](O)[C@H](C)O2)[C@H](C)[C@@H](O[C@@H]2O[C@H](C)C[C@H](N(C)C)[C@H]2O)[C@](C)(O)C[C@@H](C)CN(C)[C@H](C)[C@@H](O)[C@]1(C)O` [Azithromycin] + CCN1C(=O)N(c2c(F)c(OC)cc(OC)c2F)Cc2cnc3[nH]c(CN4CCOCC4)cc3c21 [pemigatinib], the cell viability is 1.02.
The result for `CCN(CC)CCNC(=O)c1ccc(N)cc1` [Procainamide HCl] + CCN1C(=O)N(c2c(F)c(OC)cc(OC)c2F)Cc2cnc3[nH]c(CN4CCOCC4)cc3c21 [pemigatinib] reads 0.933; that for `NC[C@H](O)c1ccc(O)c(O)c1` [Noradrenaline bitartrate monohydrate] + CCN1C(=O)N(c2c(F)c(OC)cc(OC)c2F)Cc2cnc3[nH]c(CN4CCOCC4)cc3c21 [pemigatinib], 1.04.
For `CC(C=CC1(O)C(C)=CC(=O)CC1(C)C)=CC(=O)O` (configuration not stated) [Abscisic Acid (Dormin)] + CCN1C(=O)N(c2c(F)c(OC)cc(OC)c2F)Cc2cnc3[nH]c(CN4CCOCC4)cc3c21 [pemigatinib] the value was 0.908.
For `Cc1c(-c2ccc(O)cc2)n(Cc2ccc(OCCN3CCCCCC3)cc2)c2ccc(O)cc12` [Bazedoxifene HCl] + CCN1C(=O)N(c2c(F)c(OC)cc(OC)c2F)Cc2cnc3[nH]c(CN4CCOCC4)cc3c21 [pemigatinib] the value was 0.992; for `Cc1c(-c2ccc(O)cc2)n(Cc2ccc(OCCN3CCCCCC3)cc2)c2ccc(O)cc12` [Bazedoxifene Acetate] + CCN1C(=O)N(c2c(F)c(OC)cc(OC)c2F)Cc2cnc3[nH]c(CN4CCOCC4)cc3c21 [pemigatinib], 1.07; for `C=C[C@]1(C)C[C@@H](OC(=O)CSC(C)(C)CNC(=O)[C@H](N)C(C)C)[C@]2(C)[C@H](C)CC[C@]3(CCC(=O)[C@H]32)[C@@H](C)[C@@H]1O` [Valnemulin HCl] + CCN1C(=O)N(c2c(F)c(OC)cc(OC)c2F)Cc2cnc3[nH]c(CN4CCOCC4)cc3c21 [pemigatinib], 1.02.
As to `CCc1cc2c(cc1CC)CC(NC[C@H](O)c1ccc(O)c3[nH]c(=O)ccc13)C2` [Indacaterol Maleate] + CCN1C(=O)N(c2c(F)c(OC)cc(OC)c2F)Cc2cnc3[nH]c(CN4CCOCC4)cc3c21 [pemigatinib], the cell viability was determined as 0.877.
For `Cc1cc(C(C)Nc2ccccc2)c2nc(N3CCOCC3)cc(=O)n2c1` (configuration not stated) + CCN1C(=O)N(c2c(F)c(OC)cc(OC)c2F)Cc2cnc3[nH]c(CN4CCOCC4)cc3c21 [pemigatinib] the value was 0.86; for `N[C@H]1CC[C@H](N[C@@H]2C[C@H]2c2ccccc2)CC1` + CCN1C(=O)N(c2c(F)c(OC)cc(OC)c2F)Cc2cnc3[nH]c(CN4CCOCC4)cc3c21 [pemigatinib], 0.887.
With `NC1(Cc2ccc(Cl)cc2)CCN(c2ncnc3[nH]ccc23)CC1` + CCN1C(=O)N(c2c(F)c(OC)cc(OC)c2F)Cc2cnc3[nH]c(CN4CCOCC4)cc3c21 [pemigatinib], the cell viability turned out to be 1.01.
For `CCCCOc1ccc(C(=O)Nc2ccc(F)cc2F)cc1` + CCN1C(=O)N(c2c(F)c(OC)cc(OC)c2F)Cc2cnc3[nH]c(CN4CCOCC4)cc3c21 [pemigatinib] the value was 0.938.
For `Nc1nc(OCc2cc(Br)cs2)c2[nH]cnc2n1` [Lomeguatrib] + CCN1C(=O)N(c2c(F)c(OC)cc(OC)c2F)Cc2cnc3[nH]c(CN4CCOCC4)cc3c21 [pemigatinib] the value was 0.956; for `CC(C)Oc1ccc2c(=O)c(-c3ccccc3)coc2c1` [Ipriflavone (Osteofix)] + CCN1C(=O)N(c2c(F)c(OC)cc(OC)c2F)Cc2cnc3[nH]c(CN4CCOCC4)cc3c21 [pemigatinib], 0.975.
The result for `Cc1cc(Nc2cc(N3CCN(C)CC3)nc(Sc3ccc(NC(=O)C4CC4)cc3)n2)n[nH]1` [VX-680 (Tozasertib, MK-0457)] + CCN1C(=O)N(c2c(F)c(OC)cc(OC)c2F)Cc2cnc3[nH]c(CN4CCOCC4)cc3c21 [pemigatinib] reads 0.863; that for `Clc1ccc2nsnc2c1NC1=NCCN1` [Tizanidine HCl] + CCN1C(=O)N(c2c(F)c(OC)cc(OC)c2F)Cc2cnc3[nH]c(CN4CCOCC4)cc3c21 [pemigatinib], 0.95; that for `CCCCOc1cc(C(=O)OCCN(CC)CC)ccc1N` [Oxybuprocaine HCl] + CCN1C(=O)N(c2c(F)c(OC)cc(OC)c2F)Cc2cnc3[nH]c(CN4CCOCC4)cc3c21 [pemigatinib], 0.994.
Regarding `O=C1O[C@H]([C@@H](O)CO)C([O-])=C1O.[Na+]` [Sodium ascorbate] + CCN1C(=O)N(c2c(F)c(OC)cc(OC)c2F)Cc2cnc3[nH]c(CN4CCOCC4)cc3c21 [pemigatinib], the cell viability was 0.952.
The result for `O=[N+]([O-])c1ccc(Nc2nc(N3CCOCC3)nc(N3CCOCC3)n2)cc1` + CCN1C(=O)N(c2c(F)c(OC)cc(OC)c2F)Cc2cnc3[nH]c(CN4CCOCC4)cc3c21 [pemigatinib] reads 0.95.
For `N#C/C(=C1/SC[C@@H](c2ccc(Cl)cc2Cl)S1)n1ccnc1` [Luliconazole] + CCN1C(=O)N(c2c(F)c(OC)cc(OC)c2F)Cc2cnc3[nH]c(CN4CCOCC4)cc3c21 [pemigatinib] the value was 0.948; for `CCOC(=O)C1=C(N)Oc2ccc(Br)cc2C1C(C#N)C(=O)OCC` (configuration not stated) + CCN1C(=O)N(c2c(F)c(OC)cc(OC)c2F)Cc2cnc3[nH]c(CN4CCOCC4)cc3c21 [pemigatinib], 1.06.
The result for `COC(=O)[C@H](Cc1ccccc1)NC(=O)[C@@H](N)CC(=O)O` [Aspartame] + CCN1C(=O)N(c2c(F)c(OC)cc(OC)c2F)Cc2cnc3[nH]c(CN4CCOCC4)cc3c21 [pemigatinib] reads 1.01; that for `CCS(=O)(=O)c1cccc(-c2cc(C(=O)NC3CCN(C)CC3)c(C)c3[nH]c4ncc(C)cc4c23)c1` + CCN1C(=O)N(c2c(F)c(OC)cc(OC)c2F)Cc2cnc3[nH]c(CN4CCOCC4)cc3c21 [pemigatinib], 0.296.
Consider `C=C[C@](C)(O)CC[C@@H]1[C@@]2(C)CCCC(C)(C)[C@@H]2CC[C@@]1(C)O` [Sclareol] + CCN1C(=O)N(c2c(F)c(OC)cc(OC)c2F)Cc2cnc3[nH]c(CN4CCOCC4)cc3c21 [pemigatinib], for which the cell viability came to 1.03.
For `Clc1ccc(C2(c3ccc(-c4cn[nH]c4)cc3)CCNCC2)cc1` + CCN1C(=O)N(c2c(F)c(OC)cc(OC)c2F)Cc2cnc3[nH]c(CN4CCOCC4)cc3c21 [pemigatinib] the value was 0.938; for `C[C@]12CC[C@@H]3c4ccc(O)cc4C[C@@H](CCCCCCCCC[S+]([O-])CCCC(F)(F)C(F)(F)F)[C@H]3[C@@H]1CC[C@@H]2O` (some centres not stated) [Fulvestrant] + CCN1C(=O)N(c2c(F)c(OC)cc(OC)c2F)Cc2cnc3[nH]c(CN4CCOCC4)cc3c21 [pemigatinib], 0.919; for `CNC(=O)[C@@H](NC(=O)[C@H](CC(C)C)[C@H](O)C(=O)NO)C(C)(C)C` [Marimastat(BB-2516)] + CCN1C(=O)N(c2c(F)c(OC)cc(OC)c2F)Cc2cnc3[nH]c(CN4CCOCC4)cc3c21 [pemigatinib], 0.981.
The result for `CCCOc1ccc(C(=O)OCCN(CC)CC)cc1N` [Proparacaine HCl] + CCN1C(=O)N(c2c(F)c(OC)cc(OC)c2F)Cc2cnc3[nH]c(CN4CCOCC4)cc3c21 [pemigatinib] reads 0.978; that for `CC(C)C[C@H](NC(=O)CNC(=O)c1cc(Cl)ccc1Cl)B1OC(=O)C(CC(=O)O)(CC(=O)O)O1` + CCN1C(=O)N(c2c(F)c(OC)cc(OC)c2F)Cc2cnc3[nH]c(CN4CCOCC4)cc3c21 [pemigatinib], 0.0198.
The result for `CC[C@@H](CO)NCCN[C@@H](CC)CO` [Ethambutol HCl] + CCN1C(=O)N(c2c(F)c(OC)cc(OC)c2F)Cc2cnc3[nH]c(CN4CCOCC4)cc3c21 [pemigatinib] reads 0.882.
On to `CCN(CC)CCCCNc1ncc2cc(-c3cc(OC)cc(OC)c3)c(NC(=O)NC(C)(C)C)nc2n1` + CCN1C(=O)N(c2c(F)c(OC)cc(OC)c2F)Cc2cnc3[nH]c(CN4CCOCC4)cc3c21 [pemigatinib], for which the cell viability was 0.868.
For `O=C(/C=C/c1ccc(O)c(O)c1)O[C@@H]1C[C@](O)(C(=O)O)C[C@@H](O)[C@H]1O` [Chlorogenic Acid] + CCN1C(=O)N(c2c(F)c(OC)cc(OC)c2F)Cc2cnc3[nH]c(CN4CCOCC4)cc3c21 [pemigatinib] the value was 0.936; for `C[C@@H]1COC(Nc2ccc3ncnc(Nc4ccc(OCc5nccs5)c(Cl)c4)c3c2)=N1` [Varlitinib] + CCN1C(=O)N(c2c(F)c(OC)cc(OC)c2F)Cc2cnc3[nH]c(CN4CCOCC4)cc3c21 [pemigatinib], 0.806; for `N#C/C(=C\c1ccc(O)c(O)c1)C(=O)NCc1ccccc1` [AG-490 (Tyrphostin B42)] + CCN1C(=O)N(c2c(F)c(OC)cc(OC)c2F)Cc2cnc3[nH]c(CN4CCOCC4)cc3c21 [pemigatinib], 0.948.
The result for `C#C[C@]1(O)CC[C@H]2[C@@H]3CCC4=CC(=O)CC[C@@H]4[C@H]3CC[C@@]21CC` [Levonorgestrel] + CCN1C(=O)N(c2c(F)c(OC)cc(OC)c2F)Cc2cnc3[nH]c(CN4CCOCC4)cc3c21 [pemigatinib] reads 1.07.
